Data published in the supplement of paper PMC4967469.
Lines with a small IC50 respond at low doses; a fit beyond the top or the lowest dose is shown as a bound at that dose. AUC sums up the same curve from the lowest dose to the 256-fold higher top dose: 1 means no effect, lower means more sensitive. Where the top dose is marked as inferred, it comes from the curve model; the source does not state it.

Tests used:
Assay in all cases: Viability of human cancer cell lines after 72 h of drug (GDSC screen)
[1] = compound: COc1ccccc1S(=O)(=O)Nc1ccc2c(c1)CN(C)C(=O)N2 [PFI-1]; conditions: top dose 10 µM; top dose inferred
Method: (§1)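 Human cancer cell lines in 384-well plates, medium with 10% serum, drug for 72 h over a 256-fold dose range (nine 2-fold or five 4-fold steps up to the top dose). Adherent lines were fixed and stained with the nucleic acid dye Syto60, suspension lines read with resazurin; signal relative to control wells, capped at 0 and 100%. One two-parameter sigmoid per drug and line, fitted in a mixed model over all curves with the slope shared within a line.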

[2] = compound: CCN1CCN(Cc2ccc(NC(=O)c3ccc(C)c(Oc4ccnc5[nH]ccc45)c3)cc2C(F)(F)F)CC1 [NG-25]; conditions: top dose 10.24 µM; top dose inferred
Method: as §1

[3] = compound: CCc1cc(Nc2nccc(-c3c(-c4ccc(OC)c(C(=O)Nc5c(F)cccc5F)c4)nc4ccccn34)n2)c(OC)cc1N1CCC(N2CCN(S(C)(=O)=O)CC2)CC1 [GSK-1904529A]; conditions: top dose 1.024 µM; top dose inferred
Method: as §1

[4] = compound: Cn1cncc1[C@@](N)(c1ccc(Cl)cc1)c1ccc2c(c1)c(-c1cccc(Cl)c1)cc(=O)n2C [Tipifarnib]; conditions: top dose 16 µM; top dose inferred
Method: as §1

Cell Line | AUC [1] | IC50 [1] [µM] | AUC [2] | IC50 [2] [µM] | AUC [3] | IC50 [3] [µM] | AUC [4] | IC50 [4] [µM]
EN (endometrium, adherent) | 0.982 | > 10 | 0.842 | 10.1 | 0.953 | > 1.02 | 0.726 | 5.27
EPLC-272H (lung squamous cell carcinoma, adherent) | 0.792 | 5.18 | 0.788 | 5.13 | 0.976 | > 1.02 | 0.799 | 8.82
ESS-1 (endometrium, adherent) | 0.926 | > 10 | 0.99 | > 10.2 | 0.984 | > 1.02 | 0.776 | 5.74
EW-7 (Ewing sarcoma, semi-adherent) | 0.981 | > 10 | 0.68 | 1.89 | 0.986 | > 1.02 | 0.859 | 10.8
FADU (head and neck, adherent) | 0.843 | 6.73 | 0.981 | > 10.2 | 0.987 | > 1.02 | 0.731 | 4.41
FTC-133 (thyroid, adherent) | 0.919 | > 10 | 0.971 | > 10.2 | 0.965 | > 1.02 | 0.832 | 11.7
FU97 (stomach, adherent) | 0.746 | 3.26 | 0.931 | > 10.2 | 0.951 | > 1.02 | 0.673 | 3.09
FU-OV-1 (ovary, adherent) | 0.792 | 6.19 | 0.922 | > 10.2 | 0.962 | > 1.02 | 0.737 | 5.99
G-292 Clone A141B1 (osteosarcoma, adherent) | 0.972 | > 10 | 0.957 | > 10.2 | 0.856 | > 1.02 | 0.837 | > 16
G-361 (melanoma, adherent) | 0.792 | 4.31 | 0.808 | 5.01 | 0.986 | > 1.02 | 0.541 | 1.29
G-401 (kidney, adherent) | 0.878 | > 10 | 0.672 | 2.04 | 0.853 | 0.926 | 0.406 | 0.539
G-402 (soft tissue, adherent) | 0.811 | 7.66 | 0.798 | 6.87 | 0.921 | > 1.02 | 0.576 | 1.73
GAMG (glioma, adherent) | 0.914 | > 10 | 0.811 | 5.76 | 0.978 | > 1.02 | 0.711 | 4.09
GCT (soft tissue, adherent) | 0.859 | 7.38 | 0.989 | > 10.2 | 0.964 | > 1.02 | 0.83 | 9.1
GMS-10 (glioma, adherent) | 0.84 | 6.82 | 0.982 | > 10.2 | 0.988 | > 1.02 | 0.871 | 14.8
GP5d (large intestine, adherent) | 0.928 | > 10 | 0.849 | 6.47 | 0.987 | > 1.02 | 0.548 | 1.33
H4 (glioma, adherent) | 0.752 | 3.28 | 0.952 | > 10.2 | 0.981 | > 1.02 | 0.524 | 1.16
H513 (mesothelioma, semi-adherent) | 0.938 | > 10 | 0.984 | > 10.2 | 0.91 | > 1.02 | 0.947 | > 16
H2369 (mesothelioma, adherent) | 0.9 | > 10 | 0.972 | > 10.2 | 0.949 | > 1.02 | 0.041 | < 0.0625
H2373 (mesothelioma, adherent) | 0.925 | > 10 | 0.907 | > 10.2 | 0.983 | > 1.02 | 0.897 | > 16
H2461 (mesothelioma, adherent) | 0.867 | > 10 | 0.98 | > 10.2 | 0.971 | > 1.02 | 0.764 | 7.23
H2591 (mesothelioma, adherent) | 0.907 | > 10 | 0.851 | > 10.2 | 0.974 | > 1.02 | 0.741 | 6.15
H2595 (mesothelioma, adherent) | 0.823 | 9.26 | 0.972 | > 10.2 | 0.978 | > 1.02 | 0.764 | 8.12
H2722 (mesothelioma, adherent) | 0.884 | > 10 | 0.932 | > 10.2 | 0.967 | > 1.02 | 0.711 | 4.46
H2731 (mesothelioma, adherent) | 0.877 | > 10 | 0.573 | 1.04 | 0.962 | > 1.02 | 0.779 | 7.55
H2795 (mesothelioma, adherent) | 0.843 | 6.91 | 0.869 | 9.24 | 0.982 | > 1.02 | 0.444 | 0.706
H2803 (mesothelioma, adherent) | 0.891 | > 10 | 0.798 | 5.82 | 0.972 | > 1.02 | 0.78 | 7.72
H2804 (mesothelioma, adherent) | 0.808 | 5.79 | 0.965 | > 10.2 | 0.983 | > 1.02 | 0.841 | 12.8
H2818 (mesothelioma, adherent) | 0.947 | > 10 | 0.985 | > 10.2 | 0.988 | > 1.02 | 0.9 | > 16
H2869 (mesothelioma, adherent) | 0.948 | > 10 | 0.817 | 7.52 | 0.939 | > 1.02 | 0.625 | 2.41
